# Laboratory results reported in the supplement of paper PMC7125110.
# ± gives the standard error. Variants at the background level are over-represented here.
# B1: glmS ribozyme (parent)
# chain: AUAAAAGCGCCAGAACUACAGAAAUGUAGUUGACGAGGAGGAGGUUUAUCGAAUUUUCGGCGGAUGCCUCCAAA
# How the values were obtained:
# Conditions in all cases: with glucosamine-6-phosphate
# glucosamine-6-phosphate [1] = variants of: B1; experiment: self-cleavage kobs at 40 uM GlcN6P; higher = faster cleavage; RNA array
# In short: (§1)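 Ribozyme variants carrying barcodes were transcribed in situ on sequenced MiSeq chips by E. coli RNA polymerase and tracked at 37 °C with a hybridised Cy3 probe. They were exposed to 40 μM to 10 mM glucosamine-6-phosphate in HEPES/KCl/Mg(OAc)2 buffer. kobs came from exponential decay fits of normalised per-tile medians, and kcat and KM from weighted Michaelis–Menten fits.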
# glucosamine-6-phosphate [2] = variants of: B1; experiment: self-cleavage kobs at 10000 uM GlcN6P; higher = faster cleavage; RNA array
# In short: as §1
# glucosamine-6-phosphate [3] = variants of: B1; experiment: self-cleavage kobs at 640 uM GlcN6P; higher = faster cleavage; RNA array
# In short: as §1
# glucosamine-6-phosphate [4] = variants of: B1; experiment: self-cleavage kobs at 160 uM GlcN6P; higher = faster cleavage; RNA array
# In short: as §1
# glucosamine-6-phosphate [5] = variants of: B1; experiment: self-cleavage kobs at 2500 uM GlcN6P; higher = faster cleavage; RNA array
# In short: as §1
Variant,self-cleavage kobs at 40 uM GlcN6P (glucosamine-6-phosphate [1]),self-cleavage kobs at 10000 uM GlcN6P (glucosamine-6-phosphate [2]),self-cleavage kobs at 640 uM GlcN6P (glucosamine-6-phosphate [3]),self-cleavage kobs at 160 uM GlcN6P (glucosamine-6-phosphate [4]),self-cleavage kobs at 2500 uM GlcN6P (glucosamine-6-phosphate [5])
A33U U54A U56G C61U,< 1e-05 s⁻¹,< 1e-05 s⁻¹,,,
A33G G35U,< 1e-05 s⁻¹,,< 1e-05 s⁻¹,< 1e-05 s⁻¹,
A33U C68U,< 1e-05 s⁻¹,,,,
A36G U45A A53C U57C,< 1e-05 s⁻¹,< 1e-05 s⁻¹,< 1e-05 s⁻¹,,< 1e-05 s⁻¹
G32U G35A,< 1e-05 s⁻¹,< 1e-05 s⁻¹,< 1e-05 s⁻¹,,
C34A G37C G60U,< 1e-05 s⁻¹,< 1e-05 s⁻¹,,,
G37U A53G,< 1e-05 s⁻¹,,,,
G35U A48U A53U U65C,< 1e-05 s⁻¹,< 1e-05 s⁻¹,,< 1e-05 s⁻¹,< 1e-05 s⁻¹
G37U U49G G51C U65G,< 1e-05 s⁻¹,,,,
A33G A36U A42U G60A C70U,< 1e-05 s⁻¹,< 1e-05 s⁻¹,,,
A33G A36G,< 1e-05 s⁻¹,< 1e-05 s⁻¹,< 1e-05 s⁻¹,< 1e-05 s⁻¹,< 1e-05 s⁻¹
G32C G41A A52C,< 1e-05 s⁻¹,,,< 1e-05 s⁻¹,< 1e-05 s⁻¹
G35A U57C,< 1e-05 s⁻¹,< 1e-05 s⁻¹,< 1e-05 s⁻¹,< 1e-05 s⁻¹,< 1e-05 s⁻¹
G32U A36C A53U U54A G63U,< 1e-05 s⁻¹,< 1e-05 s⁻¹,,,
A36C G41C U69A,< 1e-05 s⁻¹,,,,
G35U C58G,< 1e-05 s⁻¹,,< 1e-05 s⁻¹,,< 1e-05 s⁻¹
G35U U45C,< 1e-05 s⁻¹,< 1e-05 s⁻¹,< 1e-05 s⁻¹,< 1e-05 s⁻¹,< 1e-05 s⁻¹
G32U G44C,< 1e-05 s⁻¹,< 1e-05 s⁻¹,< 1e-05 s⁻¹,< 1e-05 s⁻¹,
C34A G40C U46C,< 1e-05 s⁻¹,,,,
G38A U49A,< 1e-05 s⁻¹,< 1e-05 s⁻¹,,,
C34U G51U U54C U57G,< 1e-05 s⁻¹,,,,< 1e-05 s⁻¹
G37C G63C,< 1e-05 s⁻¹,< 1e-05 s⁻¹,< 1e-05 s⁻¹,,
G37A G43U U55G,< 1e-05 s⁻¹,,,,
C34U G43C U55A C71A,< 1e-05 s⁻¹,< 1e-05 s⁻¹,,,

Variant,self-cleavage kobs at 40 uM GlcN6P (glucosamine-6-phosphate [1]),self-cleavage kobs at 10000 uM GlcN6P (glucosamine-6-phosphate [2]),self-cleavage kobs at 640 uM GlcN6P (glucosamine-6-phosphate [3]),self-cleavage kobs at 160 uM GlcN6P (glucosamine-6-phosphate [4]),self-cleavage kobs at 2500 uM GlcN6P (glucosamine-6-phosphate [5])
G32C G60C,< 1e-05 s⁻¹,,< 1e-05 s⁻¹,,< 1e-05 s⁻¹
A33C C70U,< 1e-05 s⁻¹,,,,
G38C U55C,< 1e-05 s⁻¹,,,< 1e-05 s⁻¹,
A33U G60A,< 1e-05 s⁻¹,,< 1e-05 s⁻¹,< 1e-05 s⁻¹,
A33U A42C U47G U54A,< 1e-05 s⁻¹,< 1e-05 s⁻¹,< 1e-05 s⁻¹,,< 1e-05 s⁻¹
A36U A39C,< 1e-05 s⁻¹,,,,
G35A U56A,< 1e-05 s⁻¹,< 1e-05 s⁻¹,,< 1e-05 s⁻¹,
G37A A48U U56C G66U,< 1e-05 s⁻¹,< 1e-05 s⁻¹,,,
G32U U45C,< 1e-05 s⁻¹,,,< 1e-05 s⁻¹,
G35U A53U U65G C70A,< 1e-05 s⁻¹,< 1e-05 s⁻¹,,,
C34A G43U,< 1e-05 s⁻¹,,< 1e-05 s⁻¹,< 1e-05 s⁻¹,< 1e-05 s⁻¹
G37C G44U A52G,< 1e-05 s⁻¹,,< 1e-05 s⁻¹,< 1e-05 s⁻¹,< 1e-05 s⁻¹
G32C U45C A53C G62C,< 1e-05 s⁻¹,< 1e-05 s⁻¹,,,
A33C G43C C68U,< 1e-05 s⁻¹,< 1e-05 s⁻¹,,,
G32A G44C,< 1e-05 s⁻¹,,< 1e-05 s⁻¹,< 1e-05 s⁻¹,
G32A G44A,< 1e-05 s⁻¹,,,< 1e-05 s⁻¹,
G35U C58G G66U,< 1e-05 s⁻¹,< 1e-05 s⁻¹,< 1e-05 s⁻¹,,
G35U G44C,< 1e-05 s⁻¹,< 1e-05 s⁻¹,,< 1e-05 s⁻¹,
G35U G44A,< 1e-05 s⁻¹,< 1e-05 s⁻¹,< 1e-05 s⁻¹,< 1e-05 s⁻¹,< 1e-05 s⁻¹
G32A G38A A52C U54A,< 1e-05 s⁻¹,< 1e-05 s⁻¹,,,
G35A C67U,< 1e-05 s⁻¹,,< 1e-05 s⁻¹,< 1e-05 s⁻¹,< 1e-05 s⁻¹
A36C G41U G59C,< 1e-05 s⁻¹,< 1e-05 s⁻¹,,,< 1e-05 s⁻¹
G35U U49C,< 1e-05 s⁻¹,,< 1e-05 s⁻¹,< 1e-05 s⁻¹,< 1e-05 s⁻¹
A33C A36G C67G,< 1e-05 s⁻¹,,,,

Variant,self-cleavage kobs at 40 uM GlcN6P (glucosamine-6-phosphate [1]),self-cleavage kobs at 10000 uM GlcN6P (glucosamine-6-phosphate [2]),self-cleavage kobs at 640 uM GlcN6P (glucosamine-6-phosphate [3]),self-cleavage kobs at 160 uM GlcN6P (glucosamine-6-phosphate [4]),self-cleavage kobs at 2500 uM GlcN6P (glucosamine-6-phosphate [5])
G32A G43A,< 1e-05 s⁻¹,,< 1e-05 s⁻¹,< 1e-05 s⁻¹,< 1e-05 s⁻¹
A33U G37U G40A G66U C68U,< 1e-05 s⁻¹,,,,
G38A G63C,< 1e-05 s⁻¹,< 1e-05 s⁻¹,,< 1e-05 s⁻¹,
G37C G41U,< 1e-05 s⁻¹,< 1e-05 s⁻¹,< 1e-05 s⁻¹,< 1e-05 s⁻¹,< 1e-05 s⁻¹
G32U G59U C71U,< 1e-05 s⁻¹,,< 1e-05 s⁻¹,< 1e-05 s⁻¹,
A33C G51A G60C,< 1e-05 s⁻¹,,< 1e-05 s⁻¹,,
C34G U45G C70A,< 1e-05 s⁻¹,,,,
G38U G59A A64U,< 1e-05 s⁻¹,< 1e-05 s⁻¹,,< 1e-05 s⁻¹,< 1e-05 s⁻¹
G37A C61G,< 1e-05 s⁻¹,< 1e-05 s⁻¹,< 1e-05 s⁻¹,,
A33G U45A C50G U54G G60A C67A,0.000354 ± 9.5e-05 s⁻¹,0.000164 ± 5.5e-05 s⁻¹,,,
G35C U57G,< 1e-05 s⁻¹,,< 1e-05 s⁻¹,,
C34G G35C A53U,< 1e-05 s⁻¹,,,< 1e-05 s⁻¹,
G35C G60C,< 1e-05 s⁻¹,< 1e-05 s⁻¹,< 1e-05 s⁻¹,< 1e-05 s⁻¹,< 1e-05 s⁻¹
G35C G60U,< 1e-05 s⁻¹,< 1e-05 s⁻¹,,,< 1e-05 s⁻¹
A33C A64C,< 1e-05 s⁻¹,,,,
G32A G37A,< 1e-05 s⁻¹,,,,
G37U U56C C71G,< 1e-05 s⁻¹,,,,
G32U G43U G44U G60A,< 1e-05 s⁻¹,,< 1e-05 s⁻¹,,< 1e-05 s⁻¹
G35A A53U G60A,< 1e-05 s⁻¹,,,,
G32U U56A C61G C67A,7.99e-05 ± 3e-05 s⁻¹,,,,
G37U G51A,< 1e-05 s⁻¹,< 1e-05 s⁻¹,,< 1e-05 s⁻¹,< 1e-05 s⁻¹
A33U G44C,< 1e-05 s⁻¹,< 1e-05 s⁻¹,< 1e-05 s⁻¹,< 1e-05 s⁻¹,< 1e-05 s⁻¹
G35U A52U G59U,< 1e-05 s⁻¹,< 1e-05 s⁻¹,< 1e-05 s⁻¹,,< 1e-05 s⁻¹
G35C A64C C70G,< 1e-05 s⁻¹,,,,

Variant,self-cleavage kobs at 40 uM GlcN6P (glucosamine-6-phosphate [1]),self-cleavage kobs at 10000 uM GlcN6P (glucosamine-6-phosphate [2]),self-cleavage kobs at 640 uM GlcN6P (glucosamine-6-phosphate [3]),self-cleavage kobs at 160 uM GlcN6P (glucosamine-6-phosphate [4]),self-cleavage kobs at 2500 uM GlcN6P (glucosamine-6-phosphate [5])
G32C G38C G44A C70U,< 1e-05 s⁻¹,,,,
A33U G40A G41A C58A C67U,< 1e-05 s⁻¹,< 1e-05 s⁻¹,,,< 1e-05 s⁻¹
C34A U56G,< 1e-05 s⁻¹,,< 1e-05 s⁻¹,< 1e-05 s⁻¹,< 1e-05 s⁻¹
A33G U69C,< 1e-05 s⁻¹,< 1e-05 s⁻¹,,,
A36C U65G,< 1e-05 s⁻¹,< 1e-05 s⁻¹,< 1e-05 s⁻¹,< 1e-05 s⁻¹,
G35A G44U U65G,< 1e-05 s⁻¹,< 1e-05 s⁻¹,< 1e-05 s⁻¹,,< 1e-05 s⁻¹
G32A C50G G51U,< 1e-05 s⁻¹,,,,
G35U G63U C67U,< 1e-05 s⁻¹,< 1e-05 s⁻¹,< 1e-05 s⁻¹,< 1e-05 s⁻¹,< 1e-05 s⁻¹
A33C U49C C58A,< 1e-05 s⁻¹,< 1e-05 s⁻¹,,,
G38C G41U,< 1e-05 s⁻¹,< 1e-05 s⁻¹,< 1e-05 s⁻¹,< 1e-05 s⁻¹,< 1e-05 s⁻¹
G32C A33G,< 1e-05 s⁻¹,,,< 1e-05 s⁻¹,< 1e-05 s⁻¹
A33U A36U G51A,< 1e-05 s⁻¹,< 1e-05 s⁻¹,,,
C34U U65G,< 1e-05 s⁻¹,< 1e-05 s⁻¹,< 1e-05 s⁻¹,,< 1e-05 s⁻¹
G37C A39C U45C,< 1e-05 s⁻¹,< 1e-05 s⁻¹,,,
G35C A36U G60A,< 1e-05 s⁻¹,< 1e-05 s⁻¹,< 1e-05 s⁻¹,,< 1e-05 s⁻¹
G32C G35A A42G U69A,< 1e-05 s⁻¹,< 1e-05 s⁻¹,,,
C34A A36C,< 1e-05 s⁻¹,< 1e-05 s⁻¹,,,
C34A C70U,< 1e-05 s⁻¹,,,< 1e-05 s⁻¹,
C34A G40C A42C U65C,< 1e-05 s⁻¹,< 1e-05 s⁻¹,< 1e-05 s⁻¹,,
C34G U54A G66A C70U,< 1e-05 s⁻¹,,,,
G35C G43A,< 1e-05 s⁻¹,,,< 1e-05 s⁻¹,< 1e-05 s⁻¹
G35A U45G,< 1e-05 s⁻¹,,< 1e-05 s⁻¹,,< 1e-05 s⁻¹
